Screen size: about 110,000 compounds; about 230 (0.21%) showed an effect of 50% or more. The list shows a part of the results.
Target: DPAP1 (Plasmodium falciparum, UniProt Q8IIJ9)
Assay: primary screen, percent inhibition; read by cleavage of a fluorogenic dipeptide substrate; higher = more effect of the substance
Parameters: species or system P. falciparum D10 trophozoite lysates; single well
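Note: 30 min substrate incubation versus DMSO and 10 µM JCP410 controls.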

Sequence of DPAP1 (Q8IIJ9 whole entry, looked up): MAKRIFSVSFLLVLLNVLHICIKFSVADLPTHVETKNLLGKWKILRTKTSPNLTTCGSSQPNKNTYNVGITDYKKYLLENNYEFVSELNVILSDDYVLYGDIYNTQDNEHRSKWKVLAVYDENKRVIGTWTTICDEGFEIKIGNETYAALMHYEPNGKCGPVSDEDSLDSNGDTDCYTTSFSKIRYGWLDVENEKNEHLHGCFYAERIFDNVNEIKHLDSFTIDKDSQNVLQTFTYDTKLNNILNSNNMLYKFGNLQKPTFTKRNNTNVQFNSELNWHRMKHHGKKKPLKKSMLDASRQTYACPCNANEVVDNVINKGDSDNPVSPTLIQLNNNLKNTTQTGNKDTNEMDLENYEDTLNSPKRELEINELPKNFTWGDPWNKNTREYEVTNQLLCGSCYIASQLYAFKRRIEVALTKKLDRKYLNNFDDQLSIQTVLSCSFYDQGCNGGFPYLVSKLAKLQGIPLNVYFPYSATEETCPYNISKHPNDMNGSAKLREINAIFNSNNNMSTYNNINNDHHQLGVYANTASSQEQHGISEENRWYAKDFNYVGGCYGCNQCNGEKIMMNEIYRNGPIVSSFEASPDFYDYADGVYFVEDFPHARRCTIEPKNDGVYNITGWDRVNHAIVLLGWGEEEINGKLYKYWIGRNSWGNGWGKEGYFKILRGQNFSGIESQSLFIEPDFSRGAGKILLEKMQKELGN

Question: For `CC(=O)N1CCN(S(=O)(=O)c2ccccc2)C1c1ccccc1` (centres unmarked), which “% Inhibition @ 10 uM” value is on record?
Answer: -5.26%

Question: How did the “% Inhibition @ 10 uM” value turn out when `Cc1cccc([N+]2=C3CCCCN3C(O)(c3ccc(Br)cc3)C2)c1` (centres unmarked) was run?
Answer: 0.343%

Question: How did the “% Inhibition @ 10 uM” value turn out when `COc1ccc(CCNC(=O)CCS(=O)(=O)c2cccc3nsnc23)cc1OC` was run?
Answer: 3.61%

Question: With `N#CCNC(=O)C(CSCc1ccccc1)CSCc1ccccc1` as the compound, how does the “% Inhibition @ 10 uM” value read?
Answer: 1.35%

Question: `Cc1ccc(Cl)cc1NC(=O)CSc1nc(O)c2ccccc2n1` was tested. Which “% Inhibition @ 10 uM” value did it give?
Answer: 1.27%

Question: Which “% Inhibition @ 10 uM” value does the source give for `COc1ccc(/C=C2\Cc3ccccc3C2=O)cc1OC` here?
Answer: -2.12%

Question: With `Cc1ccc(Oc2ccc(NC(=O)C3CCCCC3C(=O)O)cc2)cc1` (centres unmarked) as the compound, how does the “% Inhibition @ 10 uM” value read?
Answer: 2.36%

Question: How did the “% Inhibition @ 10 uM” value turn out when `CCOc1cc(C2C(C(=O)OC)=CN(Cc3ccc(Cl)cc3)C=C2C(=O)OC)ccc1O` was run?
Answer: -1.48%

Question: For `Cc1sc2c(c1C(=O)O)Nc1cc(Br)ccc1S2`, which “% Inhibition @ 10 uM” value is on record?
Answer: -3.16%

Question: With `Cc1cc2c(cc3c(=O)n(CC(=O)NCc4ccc(OC(C)C)cc4)ncn32)s1` as the compound, how does the “% Inhibition @ 10 uM” value read?
Answer: -1.92%

Question: For `CC(C)(C)NC1CCCCC1NS(=O)(=O)c1ccccc1` (centres unmarked), which “% Inhibition @ 10 uM” value is on record?
Answer: 1.12%

Question: How did the “% Inhibition @ 10 uM” value turn out when `CCc1nn(CC(=O)N2CCCCCC2)c(=O)c2cc3ccccc3n12` was run?
Answer: 1.38%

Question: Which “% Inhibition @ 10 uM” value does the source give for `CCCCNC(=O)CN(c1ccccc1OC)S(C)(=O)=O` here?
Answer: -5.7%

Question: `O=C(Nc1ccc2c(c1)OCO2)c1ccc(Cl)cc1` was tested. Which “% Inhibition @ 10 uM” value did it give?
Answer: -5.6%

Question: For `CCCC1=C(C(=O)OCC)C(c2ccccc2Cl)C(C#N)=C(N)O1` (centres unmarked), which “% Inhibition @ 10 uM” value is on record?
Answer: -3.13%

Question: `COc1cc(C2=N/C(=C/c3cccc4ccccc34)C(=O)O2)cc(OC)c1OC` was tested. Which “% Inhibition @ 10 uM” value did it give?
Answer: 2.14%

Question: With `Cc1c(NC(=O)NC2CCCc3ccccc32)sc2nc3n(c(=O)c12)CCC(C)CC3` (centres unmarked) as the compound, how does the “% Inhibition @ 10 uM” value read?
Answer: -1.7%

Question: With `CC(C)OCCCNc1ncnc2c1cnn2-c1ccc(F)cc1` as the compound, how does the “% Inhibition @ 10 uM” value read?
Answer: 4.77%

Question: `Cc1ccc(C)c(-c2csc(Nc3ccc(Oc4ccccc4)cc3)n2)c1` was tested. Which “% Inhibition @ 10 uM” value did it give?
Answer: -5.62%

Question: With `CC(=O)C1=C(O)C(=O)N(CCc2c[nH]c3ccccc23)C1c1ccc(Br)cc1` (centres unmarked) as the compound, how does the “% Inhibition @ 10 uM” value read?
Answer: 3.21%

Question: Which “% Inhibition @ 10 uM” value does the source give for `CCSc1ncc(Cl)c(C(=O)Nc2nnc(SCc3ccccc3C)s2)n1` here?
Answer: -2.85%

Question: For `Cc1cc(C)n2ncc(C#N)c2n1`, which “% Inhibition @ 10 uM” value is on record?
Answer: 4.74%

Question: With `CN(C(=O)CSc1nc2cccnc2[nH]1)C1CCCCC1` as the compound, how does the “% Inhibition @ 10 uM” value read?
Answer: -0.0871%

Question: `CC(=O)N1c2ccccc2C(c2ccccc2)(c2ccccc2)OC1/C=C/c1ccccc1` (centres unmarked) was tested. Which “% Inhibition @ 10 uM” value did it give?
Answer: -6.15%

Question: Which “% Inhibition @ 10 uM” value does the source give for `Cc1ccc(SC(C)C(=O)NC2CC2)cc1` (centres unmarked) here?
Answer: -4.12%

Question: `CCC(C)NC(=O)Cn1ncn2c(cc3ccccc32)c1=O` (centres unmarked) was tested. Which “% Inhibition @ 10 uM” value did it give?
Answer: 3.29%

Question: Which “% Inhibition @ 10 uM” value does the source give for `COc1ccccc1SC1CC(=O)N(c2ccccc2)C1=O` (centres unmarked) here?
Answer: -2.14%

Question: Which “% Inhibition @ 10 uM” value does the source give for `Cc1ccc(C2NCCc3c2[nH]c2ccccc32)cc1` (centres unmarked) here?
Answer: -2.63%

Question: For `O=S(=O)(c1ccc(F)cc1)c1cnc2cc3c(cc2c1O)OCO3`, which “% Inhibition @ 10 uM” value is on record?
Answer: -5.25%

Question: How did the “% Inhibition @ 10 uM” value turn out when `CCOc1ccc(CN2CCC(Cc3ccccc3)CC2)cc1` was run?
Answer: -3.56%

Question: For `CC1CN(C(=O)c2ccc(COc3ccc4ccccc4c3)o2)CC(C)O1` (centres unmarked), which “% Inhibition @ 10 uM” value is on record?
Answer: 0.413%

Question: With `O=S(=O)(c1cnc(Cl)c(Br)c1)N1CCCc2ccccc21` as the compound, how does the “% Inhibition @ 10 uM” value read?
Answer: -3.71%

Question: With `S=C(c1ccc2c(c1)OCO2)N1CCCCC1` as the compound, how does the “% Inhibition @ 10 uM” value read?
Answer: -0.436%

Question: With `Cc1ccc(-c2cc(C(=O)O)c3ccccc3n2)cc1C` as the compound, how does the “% Inhibition @ 10 uM” value read?
Answer: 3.82%

Question: With `COc1cccc(-c2cc(C(=O)N3CCc4ccccc4C3)[nH]n2)c1` as the compound, how does the “% Inhibition @ 10 uM” value read?
Answer: 0.181%

Question: With `COCCNC(=O)c1sc2nc(C)cc(C)c2c1-n1cccc1` as the compound, how does the “% Inhibition @ 10 uM” value read?
Answer: -1.08%

Question: For `COc1ccc(NC(=O)c2ccncc2)c(OC)c1`, which “% Inhibition @ 10 uM” value is on record?
Answer: 12.1%

Question: How did the “% Inhibition @ 10 uM” value turn out when `Cc1noc2ncnc(N3CCN(c4ccccn4)CC3)c12` was run?
Answer: -1.61%

Question: Which “% Inhibition @ 10 uM” value does the source give for `CC[C@H](NC(=O)[C@@H](Cc1ccccc1Cl)NC1=NS(=O)(=O)c2ccccc21)C(=O)c1nc2ccccc2o1` here?
Answer: -6.56%

Question: How did the “% Inhibition @ 10 uM” value turn out when `O=C(COc1cccc(Cl)c1)NCc1ccc(F)cc1` was run?
Answer: -0.0938%

Question: For `CCOCCCNC(=O)Cc1ccc(-n2c(CC)nc3cccnc32)cc1`, which “% Inhibition @ 10 uM” value is on record?
Answer: 2.15%

Question: For `CCN1CCN(CC(=O)c2c(C)[nH]c3ccccc23)CC1`, which “% Inhibition @ 10 uM” value is on record?
Answer: 3.36%

Question: `CC(C)Cn1c(=O)c2ccccc2n2c(CCC(=O)N3CCC(N4CCCCC4)CC3)nnc12` was tested. Which “% Inhibition @ 10 uM” value did it give?
Answer: 2.6%

Question: How did the “% Inhibition @ 10 uM” value turn out when `c1csc(CN2CCc3c([nH]c4ccccc34)C2)c1` was run?
Answer: -3.77%

Question: With `COc1ccc(CNC(=O)CCCc2nnc3n(CC(C)C)c(=O)c4sccc4n23)cc1` as the compound, how does the “% Inhibition @ 10 uM” value read?
Answer: -1.04%

Question: With `COc1ccc(C(=O)NC(C)c2ccccc2)cc1Br` (centres unmarked) as the compound, how does the “% Inhibition @ 10 uM” value read?
Answer: -1.6%

Question: How did the “% Inhibition @ 10 uM” value turn out when `CN(C)CCCn1c(N)nc2ccccc21` was run?
Answer: 1.84%

Question: For `Cc1ccc(OCCn2c(=N)n(CCO)c3ccccc32)cc1`, which “% Inhibition @ 10 uM” value is on record?
Answer: 1.08%

Question: With `Cc1cc(O)oc2nnc(-c3ccccc3)c1-2` as the compound, how does the “% Inhibition @ 10 uM” value read?
Answer: 0.484%

Question: `C=CCNC(=O)N[C@@H](CC1CCCCC1)C(=O)NCC#N` was tested. Which “% Inhibition @ 10 uM” value did it give?
Answer: 1.35%

Question: `O=C(Nc1ccc(S(=O)(=O)N2CCCC2)cc1)c1cccs1` was tested. Which “% Inhibition @ 10 uM” value did it give?
Answer: 0.746%

Question: For `COCCNC(=O)Cn1ncc2c3ccccc3n(Cc3cccc(Cl)c3)c2c1=O`, which “% Inhibition @ 10 uM” value is on record?
Answer: -1.58%

Question: `CCCN(CCC)S(=O)(=O)c1ccc(C(=O)Nc2nnc(/N=C/c3cccs3)s2)cc1` was tested. Which “% Inhibition @ 10 uM” value did it give?
Answer: 16.9%

Question: `Cc1onc(-c2ccccc2Cl)c1C(=O)N1CCN(C/C=C/c2ccccc2)CC1` was tested. Which “% Inhibition @ 10 uM” value did it give?
Answer: -2.9%

Question: Which “% Inhibition @ 10 uM” value does the source give for `Cc1cccc(Oc2nc3ccccn3c(=O)c2/C=C(\C#N)C(=O)NC2CCS(=O)(=O)C2)c1C` (centres unmarked) here?
Answer: 2%

Question: With `Cc1ccc(C(=O)Nc2nc(-c3nnn(-c4ccc(F)cc4F)c3C)ns2)cc1C` as the compound, how does the “% Inhibition @ 10 uM” value read?
Answer: -2.85%

Question: How did the “% Inhibition @ 10 uM” value turn out when `COC(=O)c1scc(C)c1NC(=O)C(C)Sc1nc(C)cc(C)c1C#N` (centres unmarked) was run?
Answer: 3.72%

Question: `CCCC(=O)NC(C)c1ccc(Br)cc1` (centres unmarked) was tested. Which “% Inhibition @ 10 uM” value did it give?
Answer: 1.88%

Question: Which “% Inhibition @ 10 uM” value does the source give for `Cc1ccccc1Cc1c(C)nc2nc(SCC(=O)NCc3ccccc3)nn2c1C` here?
Answer: -2.9%

Question: For `CCOCCCNC(=O)CSCc1nc(-c2ccccc2C)oc1C`, which “% Inhibition @ 10 uM” value is on record?
Answer: 2.37%

Question: Which “% Inhibition @ 10 uM” value does the source give for `O=C(CN1CCCN(Cc2ccc(F)cc2Cl)C1=O)NC1CCCC1` here?
Answer: 0.718%

Question: Which “% Inhibition @ 10 uM” value does the source give for `COc1ccc(-c2c(C)nn3c(C)cc(C)nc23)cc1` here?
Answer: -7.54%

Question: For `CC(=O)Nc1cccc(NC(=O)c2cc([N+](=O)[O-])ccc2Cl)c1`, which “% Inhibition @ 10 uM” value is on record?
Answer: -0.192%

Question: For `Cc1nc2c3ccccc3n3c(CCCC(=O)NC4CCN(Cc5ccccc5)CC4)nnc3n2n1`, which “% Inhibition @ 10 uM” value is on record?
Answer: 2.04%

Question: Which “% Inhibition @ 10 uM” value does the source give for `Cc1ccc(Nc2nc(Cl)nc(Nc3ccc(C)cc3)n2)cc1` here?
Answer: 4.98%
